# Laboratory results from the supplement of paper PMC8728848.
# Some of the results follow.
# B1: PX14379A-bvu-539-28-539 (Bacteroides vulgatus) (protein)
# chain: EPYSEIIEEDYVPTEADEIALLATTYSQLRFVMDWYGLFDLQEESGDVIVTPTRPNGWDDGGTYKQMHKHTWDNQQGQPQSIWDYCYKGIANANKILKRADEGFFTEESKPKVVAEVKGVRALWYSILCDTHGNIPIQTSFSEEVPVQSTRKQVFDFIINELKEVMPNLPTEVNKSTYGRLTQWGAKCLMARMYLNAGVYTGTPMWNECLEQCNDIINSGLFSLETNYTDIFKTENSGCVETIFAIPYDEVYNEGDNNGPVFGAHMKFLSSNSRKVFNMQTTPWGGSAANPQFINSYDPDDMRLKYTWLQGDQYSPDGVLITTFPNKLPSIYKTDTDDGYRVGKYEIKVGAKSLLSNDFPYFRYTEVLLMKAECLLRLGQNETEAAHIVSQIRERAFRESAHPEKATVDAAWLKGDTHINYGTLDEKGQIDDAGNTEVVELGGLYDEWGWEFAAEARRRTDMIRFGTYQKKSWFNHTPTANDLNGNSILFPIHLDHLNTNPNLQQNPGYAGK
# Legend:
# Assay in all cases: glycan array binding signal (z-score within array); higher = stronger binding
# Conditions in all cases: glycan notation: IUPAC condensed, linker removed
# [1] = biological target: Gal(b1-4)GlcNAc(b1-2)[Gal(b1-4)GlcNAc(b1-6)]Man(a1-6)[GlcNAc(b1-4)][Gal(b1-4)GlcNAc(b1-2)Man(a1-3)]Man(b1-4)GlcNAc(b1-4)GlcNAc
# Outline: (§1)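 Glycan array data came from 3228 arrays in the Consortium for Functional Glycomics database, and only arrays with an available protein sequence were kept. Glycan names were put into IUPAC-condensed notation, and columns mapping to the same glycan were averaged. The binding signal is a within-array Z-score, averaged across arrays of one protein sequence run at different concentrations or buffers and across linkers. A negative Z-score can be read as non-binding.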
# [2] = biological target: Gal(b1-4)GlcNAc(b1-2)[Gal(b1-4)GlcNAc(b1-6)]Man(a1-6)[GlcNAc(b1-4)][Gal(b1-4)GlcNAc(b1-2)[Gal(b1-4)GlcNAc(b1-4)]Man(a1-3)]Man(b1-4)GlcNAc(b1-4)[Fuc(a1-6)]GlcNAc
# Outline: as §1
# [3] = biological target: Gal(b1-4)GlcNAc(b1-3)Gal(b1-3)GalNAc
# Outline: as §1
# [4] = biological target: Gal(b1-4)GlcNAc(b1-3)Gal(b1-3)GlcNAc
# Outline: as §1
# [5] = biological target: Gal(b1-4)GlcNAc(b1-3)Gal(b1-4)Glc
# Outline: as §1
# [6] = biological target: Gal(b1-4)GlcNAc(b1-3)Gal(b1-4)GlcNAc
# Outline: as §1
# [7] = biological target: Gal(b1-4)GlcNAc(b1-3)Gal(b1-4)GlcNAc(b1-2)Man(a1-3)[Gal(b1-4)GlcNAc(b1-3)Gal(b1-4)GlcNAc(b1-2)Man(a1-6)]Man(b1-4)GlcNAc(b1-4)GlcNAc
# Outline: as §1
# [8] = biological target: Gal(b1-4)GlcNAc(b1-3)Gal(b1-4)GlcNAc(b1-2)Man(a1-3)[Gal(b1-4)GlcNAc(b1-3)Gal(b1-4)GlcNAc(b1-2)Man(a1-6)]Man(b1-4)GlcNAc(b1-4)[Fuc(a1-6)]GlcNAc
# Outline: as §1
# [9] = biological target: Gal(b1-4)GlcNAc(b1-3)Gal(b1-4)GlcNAc(b1-2)[Gal(b1-4)GlcNAc(b1-3)Gal(b1-4)GlcNAc(b1-6)]Man(a1-6)[Gal(b1-4)GlcNAc(b1-3)Gal(b1-4)GlcNAc(b1-2)Man(a1-3)]Man(b1-4)GlcNAc(b1-4)GlcNAc
# Outline: as §1
# [10] = biological target: Gal(b1-4)GlcNAc(b1-3)Gal(b1-4)GlcNAc(b1-2)[Gal(b1-4)GlcNAc(b1-3)Gal(b1-4)GlcNAc(b1-6)]Man(a1-6)[Gal(b1-4)GlcNAc(b1-3)Gal(b1-4)GlcNAc(b1-2)Man(a1-3)]Man(b1-4)GlcNAc(b1-4)[Fuc(a1-6)]GlcNAc
# Outline: as §1
# [11] = biological target: Gal(b1-4)GlcNAc(b1-3)Gal(b1-4)GlcNAc(b1-3)Gal(b1-4)GlcNAc
# Outline: as §1
# [12] = biological target: Gal(b1-4)GlcNAc(b1-3)Gal(b1-4)GlcNAc(b1-3)Gal(b1-4)GlcNAc(b1-2)Man(a1-3)[Gal(b1-4)GlcNAc(b1-3)Gal(b1-4)GlcNAc(b1-3)Gal(b1-4)GlcNAc(b1-2)Man(a1-6)]Man(b1-4)GlcNAc(b1-4)GlcNAc
# Outline: as §1
# [13] = biological target: Gal(b1-4)GlcNAc(b1-3)Gal(b1-4)GlcNAc(b1-3)Gal(b1-4)GlcNAc(b1-2)Man(a1-3)[Gal(b1-4)GlcNAc(b1-3)Gal(b1-4)GlcNAc(b1-3)Gal(b1-4)GlcNAc(b1-2)Man(a1-6)]Man(b1-4)GlcNAc(b1-4)[Fuc(a1-6)]GlcNAc
# Outline: as §1
# [14] = biological target: Gal(b1-4)GlcNAc(b1-3)Gal(b1-4)GlcNAc(b1-3)Gal(b1-4)GlcNAc(b1-2)[Gal(b1-4)GlcNAc(b1-3)Gal(b1-4)GlcNAc(b1-3)Gal(b1-4)GlcNAc(b1-6)]Man(a1-6)[Gal(b1-4)GlcNAc(b1-3)Gal(b1-4)GlcNAc(b1-3)Gal(b1-4)GlcNAc(b1-2)Man(a1-3)]Man(b1-4)GlcNAc(b1-4)[Fuc(a1-6)]GlcNAc
# Outline: as §1
# [15] = biological target: Gal(b1-4)GlcNAc(b1-3)Gal(b1-4)GlcNAc(b1-3)Gal(b1-4)GlcNAc(b1-3)Gal(b1-4)GlcNAc(b1-2)Man(a1-3)[Gal(b1-4)GlcNAc(b1-3)Gal(b1-4)GlcNAc(b1-3)Gal(b1-4)GlcNAc(b1-3)Gal(b1-4)GlcNAc(b1-2)Man(a1-6)]Man(b1-4)GlcNAc(b1-4)GlcNAc
# Outline: as §1
# [16] = biological target: Gal(b1-4)GlcNAc(b1-3)Gal(b1-4)GlcNAc(b1-3)Gal(b1-4)GlcNAc(b1-3)Gal(b1-4)GlcNAc(b1-2)Man(a1-3)[Gal(b1-4)GlcNAc(b1-3)Gal(b1-4)GlcNAc(b1-3)Gal(b1-4)GlcNAc(b1-3)Gal(b1-4)GlcNAc(b1-2)Man(a1-6)]Man(b1-4)GlcNAc(b1-4)[Fuc(a1-6)]GlcNAc
# Outline: as §1
# [17] = biological target: Gal(b1-4)GlcNAc(b1-3)Gal(b1-4)GlcNAc(b1-3)Gal(b1-4)GlcNAc(b1-3)Gal(b1-4)GlcNAc(b1-2)[Gal(b1-4)GlcNAc(b1-3)Gal(b1-4)GlcNAc(b1-3)Gal(b1-4)GlcNAc(b1-3)Gal(b1-4)GlcNAc(b1-6)]Man(a1-6)[Gal(b1-4)GlcNAc(b1-3)Gal(b1-4)GlcNAc(b1-3)Gal(b1-4)GlcNAc(b1-3)Gal(b1-4)GlcNAc(b1-2)Man(a1-3)]Man(b1-4)GlcNAc(b1-4)[Fuc(a1-6)]GlcNAc
# Outline: as §1
# [18] = biological target: Gal(b1-4)GlcNAc(b1-3)Gal(b1-4)GlcNAc(b1-3)Gal(b1-4)GlcNAc(b1-3)Gal(b1-4)GlcNAc(b1-3)Gal(b1-4)GlcNAc(b1-2)Man(a1-3)[Gal(b1-4)GlcNAc(b1-3)Gal(b1-4)GlcNAc(b1-3)Gal(b1-4)GlcNAc(b1-3)Gal(b1-4)GlcNAc(b1-3)Gal(b1-4)GlcNAc(b1-2)Man(a1-6)]Man(b1-4)GlcNAc(b1-4)GlcNAc
# Outline: as §1
# [19] = biological target: Gal(b1-4)GlcNAc(b1-3)Gal(b1-4)GlcNAc(b1-3)Gal(b1-4)GlcNAc(b1-3)Gal(b1-4)GlcNAc(b1-3)Gal(b1-4)GlcNAc(b1-2)Man(a1-3)[Gal(b1-4)GlcNAc(b1-3)Gal(b1-4)GlcNAc(b1-3)Gal(b1-4)GlcNAc(b1-3)Gal(b1-4)GlcNAc(b1-3)Gal(b1-4)GlcNAc(b1-2)Man(a1-6)]Man(b1-4)GlcNAc(b1-4)[Fuc(a1-6)]GlcNAc
# Outline: as §1
# [20] = biological target: Gal(b1-4)GlcNAc(b1-3)Gal(b1-4)GlcNAc(b1-3)Gal(b1-4)GlcNAc(b1-3)Gal(b1-4)GlcNAc(b1-3)Gal(b1-4)GlcNAc(b1-2)[Gal(b1-4)GlcNAc(b1-3)Gal(b1-4)GlcNAc(b1-3)Gal(b1-4)GlcNAc(b1-3)Gal(b1-4)GlcNAc(b1-3)Gal(b1-4)GlcNAc(b1-6)]Man(a1-6)[Gal(b1-4)GlcNAc(b1-3)Gal(b1-4)GlcNAc(b1-3)Gal(b1-4)GlcNAc(b1-3)Gal(b1-4)GlcNAc(b1-3)Gal(b1-4)GlcNAc(b1-2)Man(a1-3)]Man(b1-4)GlcNAc(b1-4)[Fuc(a1-6)]GlcNAc
# Outline: as §1
# [21] = biological target: Gal(b1-4)GlcNAc(b1-3)Gal(b1-4)GlcNAc(b1-3)Gal(b1-4)GlcNAc(b1-3)Gal(b1-4)GlcNAc(b1-3)Gal(b1-4)GlcNAc(b1-3)Gal(b1-4)GlcNAc(b1-2)Man(a1-3)[Gal(b1-4)GlcNAc(b1-3)Gal(b1-4)GlcNAc(b1-3)Gal(b1-4)GlcNAc(b1-3)Gal(b1-4)GlcNAc(b1-3)Gal(b1-4)GlcNAc(b1-3)Gal(b1-4)GlcNAc(b1-2)Man(a1-6)]Man(b1-4)GlcNAc(b1-4)GlcNAc
# Outline: as §1
# [22] = biological target: Gal(b1-4)GlcNAc(b1-3)Gal(b1-4)GlcNAc(b1-3)GalNAc
# Outline: as §1
# [23] = biological target: Gal(b1-4)GlcNAc(b1-3)Gal(b1-4)GlcNAc(b1-3)[Gal(b1-4)GlcNAc(b1-3)Gal(b1-4)GlcNAc(b1-6)]GalNAc
# Outline: as §1
binder,measurement,setting,value
B1,glycan array binding signal (z-score),[1],-0.433
same,glycan array binding signal (z-score),[2],-0.223
same,glycan array binding signal (z-score),[3],-0.333
same,glycan array binding signal (z-score),[4],-0.157
same,glycan array binding signal (z-score),[5],-0.017
same,glycan array binding signal (z-score),[6],-0.301
same,glycan array binding signal (z-score),[7],1.8
same,glycan array binding signal (z-score),[8],0.327
same,glycan array binding signal (z-score),[9],-0.245
same,glycan array binding signal (z-score),[10],7.27
same,glycan array binding signal (z-score),[11],-0.252
same,glycan array binding signal (z-score),[12],0.726
same,glycan array binding signal (z-score),[13],1.02
same,glycan array binding signal (z-score),[14],1.51
same,glycan array binding signal (z-score),[15],1.17
same,glycan array binding signal (z-score),[16],0.984
same,glycan array binding signal (z-score),[17],0.286
same,glycan array binding signal (z-score),[18],9.41
same,glycan array binding signal (z-score),[19],0.094
same,glycan array binding signal (z-score),[20],0.298
same,glycan array binding signal (z-score),[21],0.819
same,glycan array binding signal (z-score),[22],0.271
same,glycan array binding signal (z-score),[23],0.064
